Experimental data published in the antibiotic and cytotoxicity screens of Wong et al. (2023).
The other results are listed elsewhere or left out.

Tests used:
[1] = tested on: HSkMC (human skeletal muscle cells); test: cytotoxicity call (relative viability < 0.9); conditions: 10 µM
[2] = tested on: HepG2; test: cytotoxicity call (relative viability < 0.9); conditions: 10 µM
[3] = tested on: S. aureus RN4220; test: growth inhibition call (relative growth <= 0.2); conditions: 50 µM

In the case of Cc1ccc(S(=O)(=O)N(C)C[C@@H]2Oc3c(NC(=O)Nc4ccc(C(F)(F)F)cc4)cccc3C(=O)N([C@H](C)CO)C[C@H]2C)cc1, the cytotoxicity call [1] is reported as “inactive”, the cytotoxicity call [2] is reported as “inactive” and the growth inhibition call [3] is reported as “inactive”.
For CO[C@@H]1CN(C)C(=O)c2cc(NC(=O)Nc3ccccc3F)ccc2OC[C@@H](C)N(CCC(F)(F)F)C[C@H]1C, the cytotoxicity call [1] was “inactive”, the cytotoxicity call [2] was “inactive” and the growth inhibition call [3] was “inactive”.
With C[C@H](CO)N1C[C@H](C)[C@@H](CN(C)C(=O)CN2CCOCC2)Oc2ncc(/C=C/c3ccccc3)cc2C1=O the cytotoxicity call [1] was “inactive”, the cytotoxicity call [2] was “inactive” and the growth inhibition call [3] was “inactive”.
CC(C)NC(=O)Nc1ccc2c(c1)C(=O)N([C@@H](C)CO)C[C@H](C)[C@@H](CN(C)Cc1ccc(-c3ccccc3)cc1)O2 was tested, and the cytotoxicity call [1] was “inactive”, the cytotoxicity call [2] was “inactive” and the growth inhibition call [3] was “inactive”.
In the case of C[C@@H]1CCCCO[C@H](CN(C)C(=O)Nc2ccc(F)cc2)[C@@H](C)CN([C@H](C)CO)C(=O)c2cc(NS(=O)(=O)c3ccc(F)cc3)ccc2O1, the cytotoxicity call [1] is reported as “inactive”, the cytotoxicity call [2] is reported as “inactive” and the growth inhibition call [3] is reported as “inactive”.
In the case of C=C(CO)C(=O)O[C@@H]1[C@H]2C(=C)C(=O)O[C@@H]2[C@H]2O[C@]2(C)CC/C=C(/C(=O)OC)[C@H]1OC(C)=O, the cytotoxicity call [1] is reported as “active”, the cytotoxicity call [2] is reported as “active” and the growth inhibition call [3] is reported as “inactive”.
In the case of C[C@@H]1CN([C@@H](C)CO)C(=O)Cc2cc(NS(C)(=O)=O)ccc2O[C@@H]1CN(C)C(=O)Nc1ccccc1, the cytotoxicity call [1] is reported as “inactive”, the cytotoxicity call [2] is reported as “inactive” and the growth inhibition call [3] is reported as “inactive”.
For CCCN(C)C[C@@H]1OCCCC[C@@H](C)Oc2ccc(NC(=O)Nc3ccc(C(F)(F)F)cc3)cc2C(=O)N([C@H](C)CO)C[C@@H]1C, the cytotoxicity call [1] was “inactive”, the cytotoxicity call [2] was “active” and the growth inhibition call [3] was “inactive”.
With C[C@@H]1CN([C@H](C)CO)C(=O)c2cc(NS(=O)(=O)c3cn(C)cn3)ccc2O[C@@H](C)CCCCO[C@@H]1CN(C)S(C)(=O)=O the cytotoxicity call [1] was “inactive”, the cytotoxicity call [2] was “inactive” and the growth inhibition call [3] was “inactive”.
In the case of Cc1cc(O)n(C[C@@H](C)O)c(=O)c1C#N, the cytotoxicity call [1] is reported as “inactive”, the cytotoxicity call [2] is reported as “inactive” and the growth inhibition call [3] is reported as “inactive”.
In the case of C[C@@H]1CN([C@@H](C)CO)C(=O)c2cccc(NC(=O)c3ccc(-c4nccs4)cc3)c2O[C@@H]1CN(C)S(C)(=O)=O, the cytotoxicity call [1] is reported as “inactive”, the cytotoxicity call [2] is reported as “inactive” and the growth inhibition call [3] is reported as “inactive”.
For Cc1ccc(S(=O)(=O)N(C)C[C@H]2Oc3ncc(Br)cc3C(=O)N([C@H](C)CO)C[C@H]2C)cc1, the cytotoxicity call [1] was “inactive”, the cytotoxicity call [2] was “inactive” and the growth inhibition call [3] was “inactive”.
In the case of O=C1NCC(=O)N2[C@@H]1C[C@@H](C(=O)O)[C@H]2c1ccc(O)cc1, the cytotoxicity call [1] is reported as “inactive”, the cytotoxicity call [2] is reported as “inactive” and the growth inhibition call [3] is reported as “inactive”.
For O=C(O)CCCCCCNC(=O)c1ccc(NCc2cn(Cc3ccc(Cn4cc(CNc5ccc(C(=O)NCCCCCCC(=O)NO)cc5)nn4)cc3)nn2)cc1, the cytotoxicity call [1] was “inactive”, the cytotoxicity call [2] was “inactive” and the growth inhibition call [3] was “inactive”.
For C[C@@H]1CN([C@H](C)CO)C(=O)c2cccc(NC(=O)Nc3cccc4ccccc34)c2O[C@H]1CN(C)C(=O)Nc1ccc(C(F)(F)F)cc1, the cytotoxicity call [1] was “inactive”, the cytotoxicity call [2] was “inactive” and the growth inhibition call [3] was “inactive”.
For COCC#Cc1ccc2c(c1)O[C@H](CN(C)S(=O)(=O)c1ccc(F)cc1)[C@@H](C)CN([C@H](C)CO)S2(=O)=O, the cytotoxicity call [1] was “inactive”, the cytotoxicity call [2] was “inactive” and the growth inhibition call [3] was “inactive”.
For C[C@@H]1CCCCO[C@H](CN(C)Cc2ccc(C(F)(F)F)cc2)[C@H](C)CN([C@H](C)CO)C(=O)c2cc(NS(=O)(=O)c3ccc(F)cc3)ccc2O1, the cytotoxicity call [1] was “inactive”, the cytotoxicity call [2] was “inactive” and the growth inhibition call [3] was “inactive”.
For Cc1noc(C)c1NC(=O)Nc1ccc2c(c1)C(=O)N([C@@H](C)CO)C[C@H](C)[C@H](CN(C)C(=O)C1CCCCC1)OCCCC[C@@H](C)O2, the cytotoxicity call [1] was “inactive”, the cytotoxicity call [2] was “inactive” and the growth inhibition call [3] was “inactive”.
With C[C@@H]1CN([C@@H](C)CO)C(=O)Cc2cc(NC(=O)CCC(F)(F)F)ccc2O[C@@H]1CN(C)S(=O)(=O)c1cccs1 the cytotoxicity call [1] was “inactive”, the cytotoxicity call [2] was “inactive” and the growth inhibition call [3] was “inactive”.
With CCC(=O)N[C@@H]1C=C[C@@H](CC(=O)OC)O[C@@H]1CO the cytotoxicity call [1] was “inactive”, the cytotoxicity call [2] was “inactive” and the growth inhibition call [3] was “inactive”.
With CSCC[C@H](N)C(=O)O the cytotoxicity call [1] was “inactive”, the cytotoxicity call [2] was “inactive” and the growth inhibition call [3] was “inactive”.
In the case of C[C@@H]1CN([C@@H](C)CO)C(=O)c2cc(-c3ccncc3)cnc2O[C@H]1CN(C)S(=O)(=O)c1ccccc1, the cytotoxicity call [1] is reported as “inactive”, the cytotoxicity call [2] is reported as “inactive” and the growth inhibition call [3] is reported as “inactive”.
For C[C@@H]1CN([C@H](C)CO)C(=O)c2cc(NC(=O)Nc3ccccc3)ccc2O[C@@H]1CN(C)S(C)(=O)=O, the cytotoxicity call [1] was “inactive”, the cytotoxicity call [2] was “inactive” and the growth inhibition call [3] was “inactive”.
CO[C@H](CN(C)C(=O)c1ccc2c(c1)OCO2)[C@H](C)CN([C@@H](C)CO)S(=O)(=O)c1ccc(Cl)cc1 was tested, and the cytotoxicity call [1] was “inactive”, the cytotoxicity call [2] was “inactive” and the growth inhibition call [3] was “inactive”.
CCC(C)C(=O)OC1CCC=C2C=CC(C)C(CCC3CC(O)CC(=O)O3)C21 (stereo unspecified) was tested, and the cytotoxicity call [1] was “inactive”, the cytotoxicity call [2] was “active” and the growth inhibition call [3] was “inactive”.
C[C@H]1CN([C@@H](C)CO)C(=O)c2cccc(NC(=O)C3CC3)c2O[C@H]1CN(C)S(=O)(=O)c1cn(C)cn1 was tested, and the cytotoxicity call [1] was “inactive”, the cytotoxicity call [2] was “inactive” and the growth inhibition call [3] was “inactive”.
For COc1ccc(NC(=O)N(C)C[C@@H]2Oc3ccc(NS(=O)(=O)c4cn(C)cn4)cc3CC(=O)N([C@@H](C)CO)C[C@@H]2C)cc1, the cytotoxicity call [1] was “inactive”, the cytotoxicity call [2] was “inactive” and the growth inhibition call [3] was “inactive”.
